# Measured values reported in the antibiotic and cytotoxicity screens of Wong et al. (2023).
# The list shows a part of the results.
# Columns and labels:
# HSkMC = human skeletal muscle cells; experiment: cytotoxicity call (relative viability < 0.9); conditions: 10 µM
# HepG2 = experiment: cytotoxicity call (relative viability < 0.9); conditions: 10 µM
# S. aureus RN4220 = experiment: growth inhibition call (relative growth <= 0.2); conditions: 50 µM
SMILES,cytotoxicity call (HSkMC),cytotoxicity call (HepG2),growth inhibition call (S. aureus RN4220)
C[C@@H]1CCCCO[C@@H](CN(C)S(=O)(=O)c2cn(C)cn2)[C@H](C)CN([C@H](C)CO)C(=O)c2cc(NS(=O)(=O)c3ccccc3)ccc2O1,inactive,inactive,inactive
C[C@@H]1CN([C@H](C)CO)C(=O)c2cccc(NC(=O)c3ccncc3)c2O[C@@H]1CN(C)S(=O)(=O)c1cccs1,inactive,active,inactive
COCCc1nc2c(c(=O)n(C)c(=O)n2C)n1C,inactive,inactive,inactive
CN1CCN(C(=O)C[C@H]2CC[C@H]3[C@H](COc4ccc(NC(=O)c5cccs5)cc4C(=O)N3C)O2)CC1,inactive,inactive,inactive
COc1ccccc1NC(=O)Nc1ccc2c(c1)C(=O)N(C)C[C@@H](OC)[C@H](C)CN(Cc1ccccc1Cl)[C@H](C)CO2,inactive,inactive,inactive
NC(=O)CSc1nnnn1-c1ccccc1,inactive,inactive,inactive
C[C@H]1CCCCO[C@H](CN(C)Cc2ccccc2)[C@@H](C)CN([C@@H](C)CO)C(=O)c2cc(NC(=O)Nc3ccc(F)cc3)ccc2O1,inactive,active,inactive
C[C@@H]1CCCCO[C@H](CN(C)C(=O)NC2CCCCC2)[C@H](C)CN([C@H](C)CO)C(=O)c2cc(NC(=O)c3ccccc3)ccc2O1,inactive,inactive,inactive
C[C@H](CO)N1C[C@H](C)[C@H](CN(C)C)OCCCC[C@H](C)Oc2ccc(NS(=O)(=O)c3cn(C)cn3)cc2C1=O,inactive,inactive,inactive
Cc1noc(C)c1NC(=O)N(C)C[C@@H]1Oc2ccc(NC(=O)Nc3ccc(C(F)(F)F)cc3)cc2CC(=O)N([C@@H](C)CO)C[C@H]1C,inactive,inactive,inactive
C[C@H]1CN([C@@H](C)CO)C(=O)c2cccc(NS(=O)(=O)c3cn(C)cn3)c2O[C@H]1CN(C)S(=O)(=O)c1ccc(Cl)cc1,inactive,inactive,inactive
C[C@@H]1CN([C@@H](C)CO)S(=O)(=O)c2ccc(Br)cc2O[C@H]1CN(C)S(=O)(=O)c1cccc(F)c1,inactive,inactive,inactive
Cc1ccc(S(=O)(=O)N(C)C[C@H]2Oc3cc(C#Cc4ccncc4)ccc3S(=O)(=O)N([C@@H](C)CO)C[C@@H]2C)cc1,inactive,active,inactive
Cc1noc(C)c1NC(=O)Nc1ccc2c(c1)C(=O)N([C@H](C)CO)C[C@H](C)[C@H](CN(C)Cc1ccccc1)OCCCC[C@@H](C)O2,inactive,inactive,inactive
CCNC(=O)C=Cc1cccc(Br)c1,inactive,active,inactive
C[C@H]1CCCCO[C@H](CN(C)C(=O)CCC(F)(F)F)[C@@H](C)CN([C@@H](C)CO)C(=O)c2cc(NC(=O)NC3CCCCC3)ccc2O1,inactive,inactive,inactive
Cc1ccc(S(=O)(=O)N(C)C[C@H]2OCCCC[C@@H](C)Oc3ccc(NC(=O)Nc4c(C)noc4C)cc3C(=O)N([C@H](C)CO)C[C@@H]2C)cc1,inactive,inactive,inactive
COc1ccc([Si](C)(C)[C@H]2[C@H](CC(=O)N3CCC[C@H]3CO)O[C@@]3(C(=O)N(Cc4cccc(N5C(=O)c6cccc7cccc5c67)c4)c4ccccc43)[C@@H]2C)cc1,inactive,inactive,inactive
C[C@@H]1CN([C@H](C)CO)C(=O)c2cccc(NS(C)(=O)=O)c2O[C@H]1CN(C)C(=O)Nc1ccc(F)cc1,inactive,inactive,inactive
C=CCOC[C@H](O)Cn1c(N2CCOCC2)nc2c1c(=O)n(C)c(=O)n2C,inactive,inactive,inactive
CCCC(=O)Nc1ccc2c(c1)OC[C@H](C)N(Cc1ccc(-c3ccccn3)cc1)C[C@H](C)[C@H](OC)CN(C)C2=O,inactive,inactive,inactive
C[C@H](CO)N1C[C@H](C)[C@H](CN(C)Cc2ccc(Oc3ccccc3)cc2)Oc2ccc(NC(=O)Cc3cn(C)c4ccccc34)cc2CC1=O,inactive,active,inactive
COc1ccc(S(=O)(=O)Nc2ccc3c(c2)OC[C@@H](C)N(C(=O)NC(C)C)C[C@@H](C)[C@H](OC)CN(C)C3=O)cc1,inactive,inactive,inactive
COc1ccc(S(=O)(=O)Nc2ccc3c(c2)CC(=O)N([C@H](C)CO)C[C@@H](C)[C@H](CN(C)S(=O)(=O)c2cccs2)O3)cc1,inactive,inactive,inactive
COc1cc2c(cc1OC)CN(C(=O)[C@@H]1[C@H]3C(=O)O[C@H](c4ccccc4)[C@H](c4ccccc4)N3[C@H](c3ccc(O)cc3)[C@@]13C(=O)Nc1ccc(C#CC4(O)CCCCCC4)cc13)CC2,inactive,inactive,inactive
